# According to PubChem BioAssay AID2147 (National Center for Advancing Translational Sciences (NCATS), 2009):
# About 3,600 (1.6%) of roughly 230,000 compounds were called active. Inconclusive means that the source gave no clear call. Such entries were picked first, then a sample of the others. Calls come from the whole dose curve; as a rule, active = well fitted inhibition curve with a large enough effect (not every such curve was filed as active); inconclusive = small, poorly fitted or top-dose-only effect, or another doubt; inactive = no such curve, though single readings can be large or run the other way. Potencies of inconclusive entries are doubtful fits and often do not repeat.
# Target: Lysine-specific demethylase 4E (Homo sapiens) (UniProt B2RXH2)
# Experiment: qHTS Assay for Inhibitors of Human Jumonji Domain Containing 2E (JMJD2E)
# Conditions: JMJD2E catalytic domain, FDH-coupled NADH fluorescence (FDH is formaldehyde dehydrogenase); series mostly up to 57.1 µM
# Note: nearly all actives have a fitted effect of over 50% in size.
# Potency is the fitted concentration of half-maximal effect; tags give direction and shape of the fitted curve.
# Sequence of UniProt B2RXH2 (B2RXH2 whole entry, looked up, the tested form may be a part): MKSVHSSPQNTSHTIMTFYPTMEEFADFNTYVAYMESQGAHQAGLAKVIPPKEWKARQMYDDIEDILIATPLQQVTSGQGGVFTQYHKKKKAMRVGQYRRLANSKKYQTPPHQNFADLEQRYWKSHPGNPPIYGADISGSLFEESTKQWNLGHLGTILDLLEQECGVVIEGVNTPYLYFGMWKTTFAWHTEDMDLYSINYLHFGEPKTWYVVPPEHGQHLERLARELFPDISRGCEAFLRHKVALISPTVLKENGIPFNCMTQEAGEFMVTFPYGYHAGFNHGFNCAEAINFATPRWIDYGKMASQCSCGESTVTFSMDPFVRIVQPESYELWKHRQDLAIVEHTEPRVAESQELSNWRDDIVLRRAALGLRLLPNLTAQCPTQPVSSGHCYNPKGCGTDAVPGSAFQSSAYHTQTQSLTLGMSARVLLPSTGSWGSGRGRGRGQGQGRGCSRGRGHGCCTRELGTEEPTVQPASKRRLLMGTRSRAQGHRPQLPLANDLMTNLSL
row,SMILES,Potency
1,CCOc1ccc(CC(=O)Nc2sc(Cc3ccccc3)cc2C(N)=O)cc1OCC,"inconclusive: 39.8 µM [inhibitor, single point]"
2,CCOc1cc(CN2CCN(c3cccc(C(F)(F)F)c3)CC2)ccc1OC,"inconclusive: 25.1 µM [inhibitor, single point]"
3,Cc1ccc(-c2cc(C(=O)Nc3ccc(S(=O)(=O)Nc4nccs4)cc3)c3ccccc3n2)c(C)c1,inactive
4,O=c1cc(-c2ccccc2)[nH]n1-c1nc2ccccc2s1,"inconclusive: 39.8 µM [inhibitor, single point]"
5,Nc1c(C(=O)O)cnc2nc(N3CCOCC3)nn12,"inconclusive: 25.1 µM [inhibitor, partial curve]"
6,N#Cc1c2c(c(NCc3ccco3)n3c1nc1ccccc13)CCC2,"inconclusive: 14.1 µM [inhibitor, partial curve]"
7,CS(=O)(=O)c1ccc(Cl)c(NC(=O)Cc2ccccc2F)c1,inactive
8,Cc1ccc(C(=O)NCCc2nnc3ccc(SCC(=O)Nc4cc(C)on4)nn23)cc1,"inconclusive: 25.1 µM [inhibitor, partial curve]"
9,Cc1cc(C)nc(NC(=O)CSc2ncccn2)n1,inactive
10,Cc1ccc(Nc2cc(=O)oc3ccccc23)c(C)c1,inactive
11,CCCCCCc1c(O)c2ccccc2[nH]c1=O,"inconclusive: 28.2 µM [inhibitor, partial curve]"
12,CCOc1ccc(C2NC(=O)c3ccccc3O2)cc1 (stereo unspecified),"inconclusive: 39.8 µM [inhibitor, single point]"
13,COCc1cc(C)nc(SCC(=O)Nc2ccc(C)c(C)c2)c1C#N,"inconclusive: 35.5 µM [inhibitor, single point]"
14,Cc1ccccc1-c1cc(C(=O)Nc2sc(C(=O)OC(C)C)c(C)c2C#N)c2ccccc2n1,"inconclusive: 39.8 µM [inhibitor, single point]"
15,COC(=O)CCC(=O)Nc1ccc(N=Nc2ccccc2)cc1,inactive
16,O=C(Nc1ccc(C(F)(F)F)cn1)Nc1cccs1,inactive
17,Cc1ccsc1/C=N/NC(=O)c1cccs1,inactive
18,CCOC(=O)c1c[nH][nH]c1=O,inactive
19,CCn1nnc(NC(=O)c2cccnc2)n1,inactive
20,O=C(Nc1ccccc1C(=O)N1CCCC1)C1CCN(c2ncccn2)CC1,"inconclusive: 28.2 µM [inhibitor, single point]"
21,COc1ccc(C2CC(=O)Oc3c(C(CCN4CCCCC4)c4ccc(N(C)C)cc4)c(OC)cc(OC)c32)cc1 (stereo unspecified),inactive
22,CCC1(CC)Nc2ccccc2C(=O)N1c1ccc(OC)cc1,"inconclusive: 28.2 µM [inhibitor, partial curve]"
23,CCOc1ccc(-c2[nH]ncc2Oc2ccccc2OC)c(O)c1,"inconclusive: 31.6 µM [inhibitor, single point]"
24,Cc1c(O)cc2c(c1O)C(=O)CC(c1ccc(O)cc1)O2 (stereo unspecified),inactive
25,CCCCCC1CC1C(=O)N/N=C/c1ccc(N(C)C)cc1 (stereo unspecified),"inconclusive: 35.5 µM [inhibitor, partial curve]"
26,CCc1ccc(-c2cc(C(F)(F)F)n3nc(C(=O)Nc4cnn(Cc5ccc(C)cc5)c4)cc3n2)s1,"inconclusive: 25.1 µM [inhibitor, partial curve]"

row,SMILES,Potency
1,CCOC(=O)Cc1nnc(NC(=O)C(CC)Sc2nnc3c4ccccc4n(C)c3n2)s1 (stereo unspecified),inactive
2,O=c1oc2cc(Oc3ccc(C(F)(F)F)cc3[N+](=O)[O-])ccc2c2c1CCCC2,"inconclusive: 39.8 µM [inhibitor, single point]"
3,CS(=O)(=O)N1CCN(c2ccccc2NC(=O)c2ccc([N+](=O)[O-])o2)CC1,inactive
4,CCCn1c(-c2ccc(F)cc2)nc2c(NCCCN(C)C)nc(C)nc21,"inconclusive: 28.2 µM [inhibitor, partial curve]"
5,O=C(NCc1cccc(C(F)(F)F)c1)C1CCCN(c2ncccn2)C1 (stereo unspecified),"inconclusive: 39.8 µM [inhibitor, single point]"
6,CCCN(CCC)CCNC(=O)CCC(=O)Nc1ccc2nc(N3CCN(C)CC3)cc(C)c2c1,"inconclusive: 31.6 µM [inhibitor, partial curve]"
7,O=C(NCCCN1CCOCC1)c1sc2cc(Cl)ccc2c1Cl,inactive
8,COCCn1c(Cc2ccccc2)nnc1SCc1ccc([N+](=O)[O-])cc1,inactive
9,Cc1ccc(-c2nc3cc(Cl)ccc3o2)cc1,"inconclusive: 28.2 µM [inhibitor, partial curve]"
10,O=C1c2ccccc2-c2cccc(C(=O)N3CCCCC3)c21,inactive
11,CC(C)CN(CC(C)C)c1nc(N)c(C#N)c(CC#N)c1C#N,"inconclusive: 12.6 µM [inhibitor, partial curve]"
12,COCCCn1c(=O)/c(=C\c2ccccc2OC(F)F)s/c1=C(/C#N)C(N)=O,"inconclusive: 39.8 µM [inhibitor, single point]"
13,Cc1nccn1CC(=O)N/N=C/c1ccccc1O,"inconclusive: 28.2 µM [inhibitor, partial curve]"
14,CSc1ccccc1-n1nnnc1SCC(=O)Nc1ccccc1C,inactive
15,CC1=C(C(=O)OCc2ccccc2)C(c2cccnc2)c2c(n(C)c(=O)n(C)c2=O)N1 (stereo unspecified),"inconclusive: 35.5 µM [inhibitor, single point]"
16,Cc1ccsc1/C=C1/C(=O)NN(c2ccccc2)C1=O,inactive
17,CN(C)c1ccc(S(=O)(=O)NCC(=O)OCC(=O)Nc2cc(Cl)cc(Cl)c2)cc1[N+](=O)[O-],"inconclusive: 39.8 µM [inhibitor, single point]"
18,Cc1ccc(C)c2sc(NC(=O)c3ccc(N4C(=O)CCC4=O)cc3)nc12,"inconclusive: 20 µM [inhibitor, partial curve]"
19,CO/C(N)=C(\C#N)N=Cc1ccccc1Cl,"inconclusive: 39.8 µM [inhibitor, single point]"
20,Cc1ccc(-c2noc(CSc3nnnn3C3CCCCC3)n2)cc1,inactive
21,Cn1c(=O)cc(SCC(=O)N2CCN(C(=O)c3ccco3)CC2)c2ccccc21,"inconclusive: 28.2 µM [inhibitor, single point]"
22,CC(C)(C)c1cc(NCCCn2ccnc2)n2ncc(-c3ccc(Cl)cc3)c2n1,"inconclusive: 3.98 µM [inhibitor, partial curve]"
23,CCCCCOc1ccc(NC(=O)CSc2cccc3cccnc23)cc1,"inconclusive: 12.6 µM [inhibitor, partial curve]"
24,CCCCCCOc1ccc(N2C(=O)CC(N3CCC(C(=O)OCC)CC3)C2=O)cc1 (stereo unspecified),inactive
25,Cc1ccc(Cn2c(=O)cc(C(=O)O)c3ccccc32)cc1,"inconclusive: 39.8 µM [inhibitor, single point]"
26,CC(C)(C)NC(=O)C(c1ccncc1)N(C(=O)Cn1nnc(-c2ccc(F)cc2)n1)c1ccccc1 (stereo unspecified),inactive

row,SMILES,Potency
1,CC1(C(=O)O)Sc2[nH]c(=O)sc2C2c3ccccc3OC(=O)C21 (stereo unspecified),"inconclusive: 25.1 µM [inhibitor, partial curve]"
2,COc1ccc(CNC(=O)CN2CCN(S(=O)(=O)c3cccs3)CC2)cc1OC,inactive
3,Cc1cccc(N=c2oc3cc(O)ccc3cc2C(N)=O)c1,"inconclusive: 31.6 µM [inhibitor, partial curve]"
4,COc1ccc(CSc2nncn2C)cc1[N+](=O)[O-],inactive
5,O=C(Nc1nnc(-c2cccs2)s1)C1CC1,"inconclusive: 28.2 µM [inhibitor, partial curve]"
6,C=C(C)C1CC=C(C)/C(=N/NC(=S)Nc2ccccc2)C1 (stereo unspecified),inactive
7,COc1ccccc1/C(O)=C(\C#N)c1nc2ccccc2[nH]1,"inconclusive: 35.5 µM [inhibitor, single point]"
8,Clc1ccc(OCc2nc(-c3ccccn3)n[nH]2)cc1,inactive
9,CCOC(=O)c1snc(-c2ccc(F)cc2)c1N,"inconclusive: 39.8 µM [inhibitor, single point]"
10,CCOC(=O)c1sc(-c2ccccc2)cc1N,"inconclusive: 31.6 µM [inhibitor, partial curve]"
11,CCC(C)Oc1nc2ccccc2nc1NS(=O)(=O)c1ccccc1 (stereo unspecified),"inconclusive: 28.2 µM [inhibitor, single point]"
12,CCc1ccc(-c2cn3nc(C)c(C)nc3n2)cc1,active: 28.2 µM
13,CCCCN=C1N/C(=C\c2ccco2)C(=O)N1c1ccccc1,"inconclusive: 39.8 µM [inhibitor, single point]"
14,CC1(C)Cc2nc3sc4c(=O)n(CC(N)=O)cnc4c3cc2CO1,"inconclusive: 22.4 µM [inhibitor, partial curve]"
15,Fc1ccc(CNC(=S)NC2CCCC2)cc1,inactive
16,CCC(C)(C)n1nnnc1C(c1ccc2ncccc2c1)N1CCN(c2ccc(O)cc2)CC1 (stereo unspecified),"inconclusive: 25.1 µM [inhibitor, single point]"
17,CCOc1cccc(C(=O)Nc2cccc(-c3nc4ncccc4o3)c2C)c1,inactive
18,COc1ccccc1Nc1nc(NCC(C)C)nc(N)c1[N+](=O)[O-],inactive
19,O=C(Nc1ccccc1)c1ccccc1NS(=O)(=O)c1ccc(Cl)s1,inactive
20,CCOc1ccc(N=C/C=C/c2ccccc2)c(O)c1,active: 10 µM
21,C[N+](C)(C)c1ccc(/C=N/Nc2nc(Cl)c(C#N)c(Cl)c2Cl)cc1,"inconclusive: 35.5 µM [inhibitor, single point]"
22,CCOc1cc(/C=C/c2cc(C(F)(F)F)[nH]c(=O)n2)ccc1O,"inconclusive: 25.1 µM [inhibitor, single point]"
23,CC(C)C1Cc2[nH]c(=O)c(C(=O)O)cc2CO1 (stereo unspecified),"inconclusive: 22.4 µM [inhibitor, partial curve]"
24,O=C(CNc1ccc2ccccc2c1)NNC1=NCCC1,"inconclusive: 25.1 µM [inhibitor, partial curve]"
